Assay results: the RNAGym collection of RNA variant scans (doi:10.1073/pnas.2313332121)
This sample is rich in variants without activity.

B1: TPR 5TU (parent)
chain: GGAUCUUCUCGAUCUAACAAAAAAGACAAAUCUGCCACAAAGCUUGAGAGCAUCUUCGGAUGCAGAGGCGGCAGCCUUCGGUGGCGCGAUAGCGCCAACGUUCUCAACUAUGACACGCAAAACGCGUGCUCCGUUGAAUGGAGUUUAUCAUG

Variants of: B1
Assay: polymerase ribozyme fitness, log enrichment relative to wild type (log ratio); higher = more active; in vitro selection for triplet polymerase activity
Outline: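 Libraries of mutants in each subunit of a heterodimeric triplet polymerase ribozyme were generated by PCR and transcribed. In triplicate, each went through one in vitro selection round: annealing with biotinylated primer, partner subunit and triplets; frozen incubation at −7 °C; gel excision of extended constructs; streptavidin-bead capture; RT-PCR. Fitness, taken from Illumina sequencing of input and output libraries, is the logarithm of a genotype's enrichment over wild-type enrichment, averaged across replicates with inverse-variance weights. The logarithm is base 2, and genotypes needed ≥10 input reads and ≥1 read per output to be kept.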

| Variant | polymerase ribozyme fitness (log ratio) |
| --- | --- |
| A30U C32G A66C C95G G124U | ≤ -4.2 |
| C32U G50C C54U | ≤ -4.2 |
| C32A C87G A115U A137C | ≤ -4.2 |
| C32U A41C U53A U61A C96U G143C | ≤ -4.2 |
| C32G C38U C72U C87U | ≤ -4.2 |
| C32A A47U C57G G84U G86C G94U C105A A106C A142U | ≤ -4.2 |
| U31A C36A A52G C76A C95U C103A G124A G140U U145G | ≤ -4.2 |
| C32G C75U G92U G143A | ≤ -4.2 |
| U31G A52G C116G A147C | ≤ -4.2 |
| U31A G65A C93U U102G | ≤ -4.2 |
| C32A G86A G88A U135C G136C | ≤ -4.2 |
| U31G G46U C54A C96U G133U | ≤ -4.2 |
| A30U C54A G92A U135A | ≤ -4.2 |
| C32U C79U | ≤ -4.2 |
| C32A C35G C57U U90G G92C | ≤ -4.2 |
| A30U G86U C118U A150C | ≤ -4.2 |
| C32G A39U C96U C103G A119U G128A | ≤ -4.2 |
| U31G G42A A47C U53A U61C A115G | ≤ -4.2 |
| U31C A52C G83U C87G G136A A142C | ≤ -4.2 |
| U31G A41C U45A G81A G86A | ≤ -4.2 |
| U31C A49C C85A U101G G136A G140U | ≤ -4.2 |

| Variant | polymerase ribozyme fitness (log ratio) |
| --- | --- |
| C32G U33A C57U G86U C118G A120U C129A U135A G141C | ≤ -4.2 |
| C32A U102A G124C | ≤ -4.2 |
| C32G A37G U53A G68U G88U C96G | ≤ -4.2 |
| C32G G34U A41U C43U A49U A64G G65A C85G U151C | ≤ -4.2 |
| U31C C87A U102G | ≤ -4.2 |
| U31C G74A C85G C99U | ≤ -4.2 |
| U31G A91G G128A G143A | ≤ -4.2 |
| A30U G81A C96A C103U A106U G140C | ≤ -4.2 |
| U31A C57U G71A C75U A91C C93G U135C | ≤ -4.2 |
| A30U U53C A73G U77C G84A A106G U146C | ≤ -4.2 |
| C32G C35U C54A C75U G84U | ≤ -4.2 |
| U31A G46U A73U C76G C96A | ≤ -4.2 |
| A30U G42A C93A U111C | ≤ -4.2 |
| C32G U77A C85U | ≤ -4.2 |
| A30U C32G U55A C72A G126C | ≤ -4.2 |
| A30U G42C | ≤ -4.2 |
| A30U A52G A91G C95U U102G C103G C105U U145G | ≤ -4.2 |
| C32G A91G C99U C131U | ≤ -4.2 |
| C32A G92A A98G G136C G143C | ≤ -4.2 |
| U31A U53G C99A | ≤ -4.2 |
| C32U G46U U55A U56A C85U U148C | ≤ -4.2 |

| Variant | polymerase ribozyme fitness (log ratio) |
| --- | --- |
| A30U C63U G68A C87A G128A A147C | ≤ -4.2 |
| C32G C38A G42A C54U C105A U109G | ≤ -4.2 |
| C32U C69A G83A A97U A115G | ≤ -4.2 |
| U31G U33A A64U C95U U146C | ≤ -4.2 |
| C32A G59C C85A C131U U148A | ≤ -4.2 |
| C32U A91C C103G | ≤ -4.2 |
| U31G C35A A41C U56A C57U A73U C87G C95U C96U | ≤ -4.2 |
| A30U C51A A52C C57U C72U G86U G92U G94U C116G U151G | ≤ -4.2 |
| C32A G67A A107G A137G | ≤ -4.2 |
| C32G U61G C76A G92A C99A U102A U111C C116U C149G | ≤ -4.2 |
| U31C U61A C93U C96A A107U | ≤ -4.2 |
| C32U C76U C87U A89G C105A | ≤ -4.2 |
| A30U C35A C87A U101A | ≤ -4.2 |
| C32G G50U C51U G92A | ≤ -4.2 |
| A30U C32U G68A C69U G70U C85G U134G | ≤ -4.2 |
| C32G U55A C57U C69A U90G C93U A122C G141C A150C | ≤ -4.2 |
| U31C C63U G70C G86A U134A | ≤ -4.2 |
| C32G A60G U90A C93U G133C | ≤ -4.2 |
| C32G A115C G136A U139A G140A | ≤ -4.2 |
| C32G G62C G68U G84C C87G U151A | ≤ -4.2 |
| C32U C54A U55A C114U A115C | ≤ -4.2 |

| Variant | polymerase ribozyme fitness (log ratio) |
| --- | --- |
| U31C A49G G88A | ≤ -4.2 |
| A30U C132U G141C U145G A150U | ≤ -4.2 |
| C32U G50C U53A U55A G84U | ≤ -4.2 |
| C32A C72U U82G C85G G88A A115U C132U A142U | ≤ -4.2 |
| C32U C54A G92C U144G U148C | ≤ -4.2 |
| A30U C63G G117A A121C C132G C149G | ≤ -4.2 |
| C32A A52U G59U | ≤ -4.2 |
| C32U U55G U101G U102G U134A | ≤ -4.2 |
| U31C U44G C51G G83A A106G G140A | ≤ -4.2 |
| U31G C35U C57G C87G A110G A113U A122G | ≤ -4.2 |
| A30U A41C C54A G124U | ≤ -4.2 |
| U31A A60G G65A G68A A122U | ≤ -4.2 |
| C32U C57G G94A C108G G124C G141A | ≤ -4.2 |
| A30U C54U U77A U78A C93U G136A | ≤ -4.2 |
| U31C C93U A110G | ≤ -4.2 |
| C32G G86C G100C | ≤ -4.2 |
| U31C U61G G68U G94A A97U G128U U151G | ≤ -4.2 |
| C32G U53A | ≤ -4.2 |
| C32G A40U G58C G62A G94A C118G A142C A150G | ≤ -4.2 |
| C32G A37C G48A U56G G80A G84U A97U G152U | ≤ -4.2 |
| U31A G42A C69U C85A A142G | ≤ -4.2 |
